Experimental data from the BET-seq Pho4 binding data (Le et al. 2018).
Some of the results follow. The energies were worked out here from pooled read counts, against the library average; single values are noisy.

Target: T1, Pho4 (S. cerevisiae) (UniProt P07270)
T1 sequence: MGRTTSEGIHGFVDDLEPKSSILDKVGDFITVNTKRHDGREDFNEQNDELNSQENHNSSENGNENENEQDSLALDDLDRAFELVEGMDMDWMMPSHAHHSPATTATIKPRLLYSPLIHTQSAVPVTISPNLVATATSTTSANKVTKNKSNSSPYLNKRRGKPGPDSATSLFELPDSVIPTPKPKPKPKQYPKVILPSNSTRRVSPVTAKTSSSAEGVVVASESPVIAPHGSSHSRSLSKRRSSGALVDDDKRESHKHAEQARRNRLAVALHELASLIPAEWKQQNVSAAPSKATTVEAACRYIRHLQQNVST
Assay: relative binding free energy (BET-seq); higher = weaker binding
Conditions: reference: library average

Sequence | relative binding free energy
GCATGCACGTGGAGGG | 0.04 kcal/mol
GTTTCCACGTGAGTGG | 0.19 kcal/mol
CGTTACACGTGAGAGT | 0.25 kcal/mol
CGGTTCACGTGTTTCA | 0.32 kcal/mol
CTTGACACGTGTGATG | 0.04 kcal/mol
GAGGGCACGTGGGACA | -0.18 kcal/mol
CGGTACACGTGCGTGG | 0.08 kcal/mol
CTAGGCACGTGTGATG | -0.04 kcal/mol
TAATGCACGTGGGACG | -0.13 kcal/mol
TTTCTCACGTGATGAG | 0.27 kcal/mol
GTTCGCACGTGGGGCA | -0.18 kcal/mol
AGAAGCACGTGAAAGG | 0.34 kcal/mol
ACTTTCACGTGTGTTG | 0.2 kcal/mol
AAGTTCACGTGGGAAG | 0.02 kcal/mol
GTGGACACGTGTGAGC | 0.01 kcal/mol
TTGCGCACGTGACGGG | -0.04 kcal/mol
CAGTTCACGTGAAGTG | 0.47 kcal/mol
AAGTGCACGTGGTGAA | -0.28 kcal/mol
ATTGCCACGTGGAGTG | -0.17 kcal/mol
TTGGACACGTGCAAGT | 0.23 kcal/mol
TTGGGCACGTGGGGGA | -0.14 kcal/mol
AATGGCACGTGGCGTT | -0.2 kcal/mol
GTGATCACGTGTTCGT | 0.1 kcal/mol
AGCTGCACGTGGTCGG | -0.15 kcal/mol
GATTTCACGTGCTTGA | 0.33 kcal/mol

Sequence | relative binding free energy
TCGGGCACGTGGGATA | -0.05 kcal/mol
TATGTCACGTGCGTTG | 0.06 kcal/mol
CTTGACACGTGTTTTT | -0.08 kcal/mol
AGGTGCACGTGTGTGA | 0.03 kcal/mol
AGAGTCACGTGGTGAA | 0.15 kcal/mol
AGCATCACGTGGTGAG | 0.19 kcal/mol
TGTTTCACGTGCCTTT | 0.17 kcal/mol
GGTTTCACGTGGAACG | 0.26 kcal/mol
TTTTACACGTGCAGGG | -0.01 kcal/mol
GCTTTCACGTGAAGGG | 0.55 kcal/mol
GTGCGCACGTGCGTTT | -0.16 kcal/mol
GGGTTCACGTGCTGAT | 0.42 kcal/mol
GTATACACGTGTGTAA | 0.1 kcal/mol
TTTTTCACGTGGAGTC | 0.15 kcal/mol
AGGGTCACGTGTAAAT | 0.24 kcal/mol
TGAGGCACGTGTTAGT | -0.12 kcal/mol
TATTTCACGTGACGAT | 0.33 kcal/mol
AGTGGCACGTGCCGTT | -0.17 kcal/mol
TGATGCACGTGGGTTT | -0.04 kcal/mol
TTGGCCACGTGAGATG | 0.23 kcal/mol
TGAGGCACGTGTTCAG | -0.12 kcal/mol
TAAGTCACGTGGGGAC | 0.06 kcal/mol
ATAAACACGTGTTGGT | -0.09 kcal/mol
AATTACACGTGAGGTT | 0.36 kcal/mol
CGAGCCACGTGGGGTG | -0.21 kcal/mol

Sequence | relative binding free energy
GCTGTCACGTGTTTGA | 0.08 kcal/mol
AGGTGCACGTGTAAAT | -0.03 kcal/mol
TGGGTCACGTGATGAA | 0.36 kcal/mol
AAGTTCACGTGGGTGT | 0.14 kcal/mol
GGGTACACGTGTTTAT | 0.05 kcal/mol
TGTGGCACGTGTCCTT | -0.03 kcal/mol
AAGTACACGTGGTGTC | 0.05 kcal/mol
GTGCACACGTGGTAAG | 0.06 kcal/mol
TGATGCACGTGCGAAG | 0.05 kcal/mol
GTGTTCACGTGAAAGT | 0.39 kcal/mol
AAGTGCACGTGGTGGT | 0 kcal/mol
TCCGTCACGTGTGTGA | 0.1 kcal/mol
TGATTCACGTGGCTGG | 0.3 kcal/mol
TGTAACACGTGTTAGG | 0.05 kcal/mol
ATGTGCACGTGTATGT | 0.02 kcal/mol
TGTTTCACGTGAGGGG | 0.44 kcal/mol
GTTTACACGTGAGATG | 0.13 kcal/mol
TGTGGCACGTGAGTAT | 0.18 kcal/mol
TAGGTCACGTGCAGGG | 0.08 kcal/mol
GTTAACACGTGGGATG | -0.16 kcal/mol
AGGGACACGTGAGTCG | 0.18 kcal/mol
TGTTTCACGTGATTGA | 0.34 kcal/mol
CTTGGCACGTGTTAAT | -0.14 kcal/mol
TAGGGCACGTGATGGG | -0.06 kcal/mol
GATCACACGTGGGAGG | 0.13 kcal/mol

Sequence | relative binding free energy
GATTGCACGTGGCATG | 0.08 kcal/mol
TCAATCACGTGTTGGT | 0.2 kcal/mol
GGAATCACGTGGATGG | 0.2 kcal/mol
GCCTGCACGTGAGGTT | 0.36 kcal/mol
ACGGTCACGTGATGTT | 0.19 kcal/mol
GGGCGCACGTGCGGGA | -0.07 kcal/mol
AAGGGCACGTGCGGGT | -0.23 kcal/mol
GTCGTCACGTGTTATT | 0.15 kcal/mol
CGTTTCACGTGAGCGG | 0.3 kcal/mol
GAATTCACGTGTTGCT | 0.45 kcal/mol
ATTGTCACGTGCAAGG | 0.27 kcal/mol
TTGGTCACGTGCAGGG | 0.13 kcal/mol
CGGGGCACGTGATGGC | 0.04 kcal/mol
CTTGTCACGTGGATTT | 0.1 kcal/mol
GGGGTCACGTGAGGCC | 0.39 kcal/mol
TTAAGCACGTGGCTTG | -0.15 kcal/mol
GAATTCACGTGTGTAG | 0.23 kcal/mol
TCTGGCACGTGCGTGG | -0.19 kcal/mol
AATTTCACGTGTTAAT | 0.24 kcal/mol
GCGGTCACGTGTGTGG | 0.1 kcal/mol
GCTGGCACGTGGTTAG | -0.1 kcal/mol
GACTACACGTGGGTGG | -0.14 kcal/mol
TATTTCACGTGCATGG | 0.29 kcal/mol
GGGCCCACGTGGTGTG | -0.08 kcal/mol
TATCTCACGTGAGGTT | 0.46 kcal/mol

Sequence | relative binding free energy
GGGTTCACGTGTGGAG | 0.3 kcal/mol
TGTGTCACGTGCGAAA | 0.14 kcal/mol
TGAGGCACGTGAAGTC | 0.12 kcal/mol
TGGAGCACGTGGGTGT | -0.16 kcal/mol
AAAGGCACGTGGCTTG | -0.13 kcal/mol
TTAGGCACGTGTTCGG | -0.05 kcal/mol
GGGGGCACGTGTCAGG | -0.03 kcal/mol
GAAATCACGTGCGGGT | 0.19 kcal/mol
AATCGCACGTGTGAGG | 0.03 kcal/mol
GGTTCCACGTGGCGGT | 0.09 kcal/mol
TGGCGCACGTGGCTTT | -0.1 kcal/mol
GTGATCACGTGTATGG | 0.28 kcal/mol
GTGGACACGTGTATGA | -0.02 kcal/mol
GGACGCACGTGTCGGT | 0.12 kcal/mol
TGGAACACGTGGGAGT | 0.02 kcal/mol
TGTGGCACGTGCACGT | -0.29 kcal/mol
CGTGGCACGTGGAGTG | -0.19 kcal/mol
TTTATCACGTGGCGTC | 0.04 kcal/mol
TAGTCCACGTGGGGTA | -0.2 kcal/mol
TAGCACACGTGGTTGT | -0.03 kcal/mol
TTAGACACGTGTAGTT | 0.11 kcal/mol
TGCTTCACGTGGCGGG | 0.15 kcal/mol
CGTGCCACGTGGTTTG | -0.04 kcal/mol
ATAGCCACGTGGTTGG | -0.26 kcal/mol
GGTGTCACGTGAATTC | 0.39 kcal/mol

Sequence | relative binding free energy
TTGGGCACGTGGATGC | -0.12 kcal/mol
TGGCCCACGTGGTGAG | -0.1 kcal/mol
AGTCACACGTGGTTTT | 0.09 kcal/mol
ATTTTCACGTGTAAAA | 0.27 kcal/mol
TATCTCACGTGATTTT | 0.24 kcal/mol
TTATACACGTGAGTTA | 0.06 kcal/mol
TTTAACACGTGGATAG | 0.06 kcal/mol
AGTGGCACGTGGTACT | -0.23 kcal/mol
CGGCGCACGTGTGGCG | 0.02 kcal/mol
TTGTTCACGTGCGTAG | 0.15 kcal/mol
CGTTCCACGTGGGCGG | -0.03 kcal/mol
AGTGCCACGTGGTCGG | -0.16 kcal/mol
AGGTACACGTGTGAGC | 0.21 kcal/mol
ATTTACACGTGATAGG | 0.27 kcal/mol
ATACTCACGTGCGGTG | 0.18 kcal/mol
TAAGACACGTGTTGTG | -0.23 kcal/mol
TGTCTCACGTGGTTGA | 0.13 kcal/mol
TTAGTCACGTGAAAGC | 0.3 kcal/mol
ATAAGCACGTGTGGAA | 0.06 kcal/mol
AGGTTCACGTGTTACT | 0.39 kcal/mol
AGGGACACGTGATATG | 0.13 kcal/mol
